Test results as given in PubChem BioAssay AID493208 (National Center for Advancing Translational Sciences (NCATS), 2011).
Among all 44,000 compounds or so, about 340 (0.77%) were called active. About 5% were inconclusive and are not listed. Calls follow the shape of the dose curve; as a rule, active = well fitted inhibition curve with a large enough effect; inconclusive = small, poorly fitted or top-dose-only effect; inactive = flat fitted curve, though single readings scatter. The list shows a part of the results.

Experiment: Acumen qHTS Assay for Inhibitors of the mTORC1 Signaling Pathway in MEF (Tsc2-/-, p53-/-) Cells: Sytravon;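 also: plate controls were DMSO for no effect and rapamycin for full effect; nearly all actives have a fitted effect of over 50% in size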
Details: phospho-rpS6 immunofluorescence/PI, 24 h; series mostly up to 38.3 µM; activity change, negative = inhibition: at the top concentration
How it was run: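 Cell-based qHTS: Tsc2-/- p53-/- MEF, 24 h cpd, 37 °C; fix/perm, anti-phospho-S6 Alexa-488 + PI; Acumen 488 nm scan; pS6/PI ratio, % positive cells; rapamycin 7.5 nM = inhibition ref; PI count = viability.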

Activity change, negative = inhibition, inactive:
COc1ccc(-c2nc3c4cnn(-c5ccccc5F)c4ncn3n2)cc1 -8.45%, CC(=O)Nc1ccc(NS(=O)(=O)c2ccc3c(c2)CC(C)N3C(=O)C2CCC2)cc1 (centres undefined) -8.42%, COC(=O)CC1Oc2ccc(F)cc2-n2cc(-c3ccc(Cl)cc3)nc21 (centres undefined) -35.7%, COc1ccc(NC(=O)CN2CCCN(S(=O)(=O)c3ccc(Br)cc3)CC2)c(OC)c1 1.39%, CCOC(=O)c1ccc(NC(=O)CCS(=O)(=O)c2ccc(C)cc2)cc1 -3.09%, Cc1cccc(-c2nc(CCNC(=O)c3ccco3)cs2)c1 -3.36%, Cc1ccc2oc(C(=O)Nc3ccc(S(=O)(=O)N4CCCCCC4)cc3)cc(=O)c2c1 5.82%, CCOC(=O)c1cc(C)n(CC2CCC(C(=O)Nc3ccc(OC)c(OC)c3)CC2)c1C (centres undefined) -7.65%, CCc1ccc(NC(=O)c2sc(-n3nc(C)c(Cc4ccc5c(c4)OCO5)c3C)nc2C)cc1 -0.368%, Cc1cc(C)cc(NS(=O)(=O)c2c(C)nc3scc(C)n3c2=O)c1 0.346%, CCOc1ccccc1NC(=O)Cn1c(=O)n(-c2ccc(C)c(C)c2)c(=O)c2oc3ccccc3c21 -1.34%, O=C(Oc1ccccc1F)c1nc(SCc2ccccc2F)ncc1Cl 2.81%, COc1ccccc1NC(=O)Cn1nc2c3cc(F)ccc3n(Cc3cccc(C)c3)cc-2c1=O -0.988%, CCN1CCC(N(Cc2ccc3c(c2)OCO3)C(=O)Nc2cccc(C)c2C)CC1 -19.7%, COc1ccc(Nc2ncc3c(n2)CCN(Cc2cccc(F)c2F)C3)c(OC)c1 0%, CC(=O)N1CCCc2cc(S(=O)(=O)NCc3ccccc3Cl)ccc21 -8.42%, CCN(Cc1ccccc1)C(=O)C1CCC(CNS(=O)(=O)c2ccc3c(c2)CCCC(=O)N3)CC1 (centres undefined) -4.54%, Cc1ccc(C)c(NC(=O)c2cc(S(=O)(=O)N3CCN(c4cccc(Cl)c4)CC3)ccc2F)c1 11.4%, CCc1ccc(Nc2nc3c(S(=O)(=O)c4ccc(C)cc4)nnn3c3ccsc23)cc1 -11.2%, Cc1ccc(S(=O)(=O)c2nnn3c2nc(N2CCCC(C)C2)c2cc(Cl)ccc23)cc1C (centres undefined) 0.605%, CCN(C(=O)Cn1cc(S(=O)(=O)N2CCN(c3ccccc3F)CC2)c2ccccc2c1=O)c1ccc(C)c(C)c1 3.33%, Cc1ccc(NC(=O)Cn2c(=O)n(-c3ccccc3)c(=O)c3ccc(C(=O)NCc4ccc5c(c4)OCO5)cc32)cc1 -9.18%, Oc1c(C(c2ccccc2Cl)N2CCC(O)CC2)sc2nc(-c3ccco3)nn12 (centres undefined) -0.303%, CCOc1ccc(S(=O)(=O)NCc2ccc3c(c2)CCN3C(=O)c2ccc(C)cc2)cc1 6.11%, COc1ccc(S(=O)(=O)Nc2cc(-c3cn4ccc(C)cc4n3)ccc2C)cc1OC 3.32%, Cc1nnc2c3ccccc3nc(Nc3ccccc3C(=O)O)n12 2.95%, CCn1ccc2cc(S(=O)(=O)N3CCC(C(=O)NCC(C)c4ccccc4)CC3)ccc21 (centres undefined) -7.59%, O=C(COc1ccc(Cl)cc1)Nc1ccc2nc(SCC(=O)N3CCOCC3)sc2c1 -9.88%, Cc1ccc(NC(=O)CSc2nc3ccccc3nc2Cc2ccccc2)c(Cl)c1 -20.4%, Cc1ccc(Cl)cc1NC(=O)c1nnn(Cc2ccccc2)c1N -3.9%, Cc1ccc(-n2ncc(C(=O)NCc3ccccn3)c2C2CCN(C(=O)OC(C)(C)C)CC2)cc1C 2.41%, COc1cccc(CNC(=O)C2CCN(Cc3cc4ccccc4n3Cc3ccccc3)CC2)c1OC -7.08%, Cc1ccc(CN2c3ccccc3-c3nc(SCC(=O)NCCc4ccccc4)ncc3S2(=O)=O)cc1 6.35%, CCOC(=O)c1cccc(NC(=O)CSc2cc(=O)n(C)c3ccccc23)c1 4.67%, O=C(Nc1ccc(C(F)(F)F)cc1)c1cc(S(=O)(=O)N2CCCc3ccccc32)ccc1F -4.15%, CCOC(=O)c1ccc(Oc2nc(C)nc3c2oc2ccccc23)cc1 -0.0667%, Cc1nnsc1C(=O)Oc1ccc(C#N)cc1 -9.12%, O=C(/C=C/c1ccccc1)Nc1nc2n(n1)C(c1ccc(Cl)cc1)C=C(c1ccccc1)N2 (centres undefined) 4.34%, Clc1ccc(CN2CCc3nc(N4CCN(c5ccccn5)CC4)ncc3C2)cc1 0%, O=C(CN1C(=O)C2(SCC(=O)N2c2cccc(F)c2)c2ccccc21)NCc1ccccc1Cl (centres undefined) -6.34%, CCCOc1ccc(NC(=O)CC2C(=O)N(c3ccc(OC)cc3)C(=O)N2CCc2ccncc2)cc1 (centres undefined) -10%, CCc1nc2ccccc2n1CCCCOc1cccc(C)c1 -6.42%, CCOC(=O)c1cc(-c2ccccc2)n(CCCC(=O)Nc2cccc(C)c2)c1C -1.14%, CC(C)CC(=O)NCC(c1ccc2c(c1)OCO2)N1CCN(c2ccc(F)cc2)CC1 (centres undefined) -8.43%, CC(C)(C)c1ccc(S(=O)(=O)c2cnc(SCC(=O)Nc3ccc4c(c3)OCCO4)[nH]c2=O)cc1 1.09%, COc1cccc2c1cc1c(=O)n(CC(=O)N3CCN(c4ccc(F)cc4)CC3)nc(C)n12 -1.61%, CCCS(=O)(=O)c1nc(S(=O)(=O)c2ccc(C)cc2)c(NCCCOC(C)C)s1 -1.46%, COc1ccc2nc(SCC(O)c3cccc(Br)c3)[nH]c2c1 (centres undefined) -2.05%, Cc1ccc(Sc2ccc(N3CCCC(C(=O)Nc4ccc(F)cc4)C3)nn2)cc1 (centres undefined) -5.29%, O=C(Cn1nc(N2CCN(c3ccccc3)CC2)ccc1=O)NCc1ccccc1F 8.17%, CCN(CC)C(=O)CSc1nc2cc3c(cc2c(=O)n1CCCC(=O)NCc1ccc2c(c1)OCO2)OCO3 -3.46%, COc1ccc(-c2cn3c(n2)sc2cc(C(=O)NCCCc4ccccc4)ccc23)cc1 8.55%, Cc1nn(-c2ccc(N3CCCCC3)nn2)c(C)c1CCC(=O)NCc1ccccc1 -14.7%, Cc1cccc(C(=O)Nc2ccccc2OCc2cc(=O)n3ccccc3n2)c1 4.08%, CCOc1ccc(NC(=O)c2cn(C3CCCCC3)c(=O)c3c2c2ccccc2n3C)cc1 -15.4%, Cc1ccc(-c2nnc(SCC(=O)NC(C)(C)C)nc2-c2ccc(C)cc2)cc1 3.22%, Cn1c(=O)c2c(nc(NCCc3ccccc3)n2Cc2ccccc2Br)n(C)c1=O 0.568%, CCOc1ccc(C(=O)N(Cc2nc(-c3cccc(C)c3)no2)C(C)C)cc1 -6.39%, COc1ccc(-c2nc(CN3CCC(C(=O)NCc4ccc(C)cc4)CC3)c(C)o2)cc1OC -10.9%, CCOc1ccc(CNC(=O)CCCn2c(=O)c3cccn3c3ccccc32)cc1 -14.8%, COc1ccc(CCNC(=O)C(=O)NCC(c2cccs2)S(=O)(=O)c2cccs2)cc1 (centres undefined) 0.0636%, COc1ccccc1CNc1ncnc2onc(-c3ccc(F)cc3)c12 -1.03%, COc1ccc(C(=O)n2nc(-c3cccnc3)nc2NCc2ccccc2)cc1OC 3.3%, CCOc1ccccc1Nc1nc2ccccc2nc1NS(=O)(=O)c1ccc(Cl)cc1 3.81%, CC(=O)N1CCCc2cc(S(=O)(=O)N3CCC(C(=O)Nc4c(C)cccc4C)CC3)ccc21 0.816%, CCc1nnc(SCc2cccc(Cl)c2)c2cc3sccc3n12 4.38%, COc1ccc(-c2cc(OC(=O)c3ccccc3Cl)c3c(C)oc(C)c3c(=O)c2)cc1OC -3.96%, Cc1cc(C)c(NC(=O)CSc2nc3nccnc3c(=O)n2CCc2c[nH]c3ccccc23)c(C)c1 0.278%, CCOc1cccc(C(=O)Nc2ccc3oc(-c4ccncc4)nc3c2)c1 -2.72%, Cc1cc(F)ccc1NC(=O)Cn1nc(N2CCN(c3ccccc3)CC2)ccc1=O 7.85%, COc1ccc2c(CNC3CCCCCC3)c(C(=O)O)n(Cc3ccc(C)cc3)c2c1 -0.348%, Cc1ccc(-c2noc(-c3cccnc3NCc3ccco3)n2)cc1 -11.5%, COc1ccc(CNC(=O)CN2C(=O)COc3ccc(S(=O)(=O)N4CCCCC4)cc32)cc1 -7.48%, Cc1ccc(Cn2c(C)c3cnn(CC(=O)O)c(=O)c3c2C)cc1 0.649%, O=C(Nc1cccc(C(=O)OCc2cc(=O)n3c4c(sc3n2)CCCC4)c1)c1ccc(Cl)cc1 0%, COc1ccc(NC(=O)Cn2c(=O)n(CCCCCC(=O)NCc3ccc4c(c3)OCO4)c(=O)c3sccc32)cc1Cl 0.962%, O=C(NCc1ccccc1)c1cnc2sc(N3CCCC3)nn2c1=O 5.02%, CCN(CC)C(=O)c1sc2c(c1C)c(=O)n(Cc1ccccc1)c(=O)n2Cc1cc(C)ccc1C -6.67%, COc1ccc(C)cc1NC(=O)c1sc2nc(-c3ccc(F)cc3)cn2c1C -11.9%, CCOc1cc(S(=O)(=O)NCCc2c(C)[nH]c3ccc(C)cc23)ccc1F 1.98%, COc1ccc2c(c1)c(CC(=O)Nc1cc(C)cc(C)c1)c(C)n2C(=O)c1ccc(Cl)cc1 -0.149%, O=C(CCCn1ncn2c(cc3occc32)c1=O)NCc1ccccc1F -7.3%, Cc1cc(C)c2oc(C(=O)Nc3ccc(S(=O)(=O)Nc4ncccn4)cc3)cc(=O)c2c1 5.53%, Cc1cc2c(cc1S(=O)(=O)C(C)CC(=O)NC1CCC(C)CC1)OCC(=O)N2 (centres undefined) -2.72%, O=C(Nc1ccccc1C(F)(F)F)c1cc2nc(-c3ccccc3)cc(-c3ccccc3)n2n1 -0.624%, CCc1ccc2c(c1)NC(c1ccc(F)cc1)=NC(c1ccncc1)=N2 0.307%, CCc1ccc(OC(=O)CSc2nnc(-c3ccc(OC)c(OC)c3)o2)cc1 0.335%, Cc1c2cnn(CC(=O)NC(C)C)c(=O)c2c(C)n1Cc1cccc(Cl)c1 0.128%, COc1ccc(/C=C/c2nc(C#N)c(NCc3ccc(C)cc3)o2)cc1OC -8.38%, CCNC(=O)c1ccc2c(c1)sc1nc(-c3cccc(OC)c3)cn12 -0.0328%, CC(Oc1ccccc1)C(=O)Nc1cccc(-c2cn3cccnc3n2)c1 (centres undefined) 3.11%, O=C(NCCc1ccccc1)c1ccc2c(c1)N(Cc1ccc(F)cc1Cl)C(=O)CS2 0.342%, Cc1ccc(NC(=O)N2CCC3(CC2)Oc2ccccc2C(=O)N3Cc2ccc(F)cc2)cc1 1.18%, CCOc1ccc(NC(=O)CC2C(=O)N(c3ccccc3)C(=O)N2CCc2sccc2C)cc1 (centres undefined) -16.4%
